From patent publication US8828401B2, “Cytotoxic peptides and antibody drug conjugates thereof” (Pfizer Inc., priority 2011, dated 2014)
Entries after “also recorded” stand apart in the source; their conditions may differ.

Key:
[1] = system: MDA-MB-468 breast xenografts; experiment: MDA-MB-468 breast xenografts with anti-Notch ADCs; type: in vivo, female SCID Hairless Outbred (SHO) mice; settings: for tumor volume (mm^3 ± SEM): Dose 3 mg/kg Q4dx4 iv
Procedure: (§1) Humanized anti-Notch antibodies, hu28 and hu75, and rat-human chimeric anti-Notch antibodies, ch28 and ch75, were conjugated to various linker-payload combinations and tested in 37622A1 non-small cell lung cancer (NSCLC), HCC2429 lung cancer, MDA-MB-468 breast cancer and N87 gastric cancer xenograft models. For each model described below the first dose was given on Day 0. The tumors were measured at least once a week and their volume was calculated with the formula: tumor volume (mm^3)=0.5×(tumor width^2)(tumor length). The mean tumor volumes (±S.E.M.) for each treatment group were calculated having a maximum of 10 animals and a minimum of 6 animals to be included.
Similar in vivo experiments were performed with the MDA-MB-468 breast cancer cell line as described above. […] To generate xenografts, female SCID Hairless Outbred (SHO) mice were orthotopically implanted with 10×10^6 MDA-MB-468 cells containing 50% Matrigel (BD Biosciences) in the mammary fat pad. When the tumors reached a volume of 250 to 450 mm^3, the tumors were staged to ensure uniformity of the tumor mass among various treatment groups. The MDA-MB-468 breast model was dosed intraveneously Q4dx4 with PBS vehicle, humanized anti-Notch ADCs and control huNeg-8.8 ADCs at the doses provided in Tables 14 and 15.

HCC2429 lung xenografts = HCC2429 lung xenografts with anti-Notch ADCs; type: in vivo, nude (Nu/Nu) female mice
Procedure: as §1
Similar in vivo experiments were performed with the HCC2429 lung cancer cell line as described above. […] When the tumors reached a volume of 200 to 400 mm^3, the tumors were staged to ensure uniformity of the tumor mass among various treatment groups. The HCC2429 lung model was dosed intraveneously Q4dx4 with PBS vehicle, humanized anti-Notch ADCs and control huNeg-8.8 ADCs at the doses provided in Tables 12 and 13.

OVCAR3 (ovarian cancer) = experiment: In vitro cytotoxicity assay with anti-Notch ADCs (MTS); type: cell-based
Procedure: (§2) The effects of anti-Notch ADCs were assessed on 1) cell lines endogenously expressing Notch protein: HCC2429 (lung cancer), OVCAR3 (ovarian cancer) and MDA-MB-468 (breast cancer), 2) cell lines engineered to over-express Notch protein: MDA-MB-468/hNotch and U2OS/hNotch, and 3) a negative control cell line (SW900) using an MTS cellular viability indicator (Promega, Madison, Wis.). These cell lines were cultured with increasing concentrations of anti-Notch ADCs comprising humanized anti-Notch antibodies, hu28 and hu75, and rat-human chimeric anti-Notch antibodies, ch28 and ch75, conjugated to various linker-payload combinations of the present invention. As a specificity control for the anti-Notch-ADCs, non-targeted control-ADCs (huNeg8.8-ADCs or ch2H6-ADCs) were also tested on the same cell lines. After four days, viability of each culture was assessed. IC50 values were calculated by logistic non-linear regression and presented as ng Ab/mL. The drug antibody ratio (DAR) is also provided.

HCC2429 (lung cancer) = experiment: as above; type: cell-based
Procedure: as §2

MDA-MB-468/hNotch = experiment: as above; type: cell-based
Procedure: as §2

[2] = first of two individual repeats
[3] = second of two individual repeats

B1: hu28-vc0101: humanized anti-Notch antibody hu28 conjugated to mcValCitPABC-#54 (conjugate)
heavy: EVQLVESGGGLVQPGGSLRLSCAASGFTFRDYGMTWVRQAPGKGLEWVAYISSGSNYIYYAEAVKGRFTISRDNAKNSLYLQMNSLRAEDTAVYYCARRGPFVLDAWGQGTLVTVSS[human IgG1 constant region left out]
light: DIQMTQSPSSLSASVGDRVTITCKASQSINRYLHWYQQKPGKAPKLLIYNANGLQTGVPSRFSGSGSGTDFTLTISSLQPEDFATYYCLQHNTWPDTFGGGTKVEIKRTVAAPSVFIFPPSDEQLKSGTASVVCLLNNFYPREAKVQWKVDNALQSGNSQESVTEQDSKDSTYSLSSTLTLSKADYEKHKVYACEVTHQGLSSPVTKSFNRGEC
- tumor volume (mm^3 ± SEM) ([1]; DAY 63): 0 ± 0 mm^3
- tumor volume (mm^3 ± SEM) ([1]; DAY 67): 0 ± 0 mm^3
- tumor volume (mm^3 ± SEM) ([1]; DAY 70): 0 ± 0 mm^3
- effect on growth of MDA-MB-468 breast xenografts (in words) ([1]; humanized ADCs, Q4dx4, doses of Tables 14 and 15): inhibited growth of MDA-MB-468 breast xenografts in a dose-dependent manner
- tumor volume (mm^3 +/− SEM) (HCC2429 lung xenografts; 0.3 mg/kg Q4dx4, DAY 1): 528 ± 50 mm^3
- tumor volume (mm^3 +/− SEM) (HCC2429 lung xenografts; 0.3 mg/kg Q4dx4, DAY 3): 733 ± 78 mm^3
- tumor volume (mm^3 +/− SEM) (HCC2429 lung xenografts; 0.3 mg/kg Q4dx4, DAY 6): 1112 ± 132 mm^3
- tumor volume (mm^3 +/− SEM) (HCC2429 lung xenografts; 0.3 mg/kg Q4dx4, DAY 8): 1617 ± 172 mm^3
- tumor volume (mm^3 +/− SEM) (HCC2429 lung xenografts; 0.3 mg/kg Q4dx4, DAY 10): 2027 ± 233 mm^3
- tumor volume (mm^3 +/− SEM) (HCC2429 lung xenografts; 0.3 mg/kg Q4dx4, DAY 13): 2642 ± 297 mm^3
- tumor volume (mm^3 +/− SEM) (HCC2429 lung xenografts; 0.3 mg/kg Q4dx4, DAY −1): 246 ± 30 mm^3
- tumor volume (mm^3 +/− SEM) (HCC2429 lung xenografts; 1 mg/kg Q4dx4, DAY 1): 532 ± 36 mm^3
- tumor volume (mm^3 +/− SEM) (HCC2429 lung xenografts; 1 mg/kg Q4dx4, DAY 3): 757 ± 68 mm^3
- tumor volume (mm^3 +/− SEM) (HCC2429 lung xenografts; 1 mg/kg Q4dx4, DAY 6): 1095 ± 119 mm^3
- tumor volume (mm^3 +/− SEM) (HCC2429 lung xenografts; 1 mg/kg Q4dx4, DAY 8): 1324 ± 173 mm^3
- tumor volume (mm^3 +/− SEM) (HCC2429 lung xenografts; 1 mg/kg Q4dx4, DAY 10): 1606 ± 250 mm^3
- tumor volume (mm^3 +/− SEM) (HCC2429 lung xenografts; 1 mg/kg Q4dx4, DAY 13): 1717 ± 223 mm^3
- tumor volume (mm^3 +/− SEM) (HCC2429 lung xenografts; 1 mg/kg Q4dx4, DAY 15): 1865 ± 263 mm^3
- tumor volume (mm^3 +/− SEM) (HCC2429 lung xenografts; 1 mg/kg Q4dx4, DAY 17): 2228 ± 333 mm^3
- tumor volume (mm^3 +/− SEM) (HCC2429 lung xenografts; 1 mg/kg Q4dx4, DAY −1): 246 ± 26 mm^3
- tumor volume (mm^3 +/− SEM) (HCC2429 lung xenografts; 3 mg/kg Q4dx4, DAY 1): 548 ± 52 mm^3
- tumor volume (mm^3 +/− SEM) (HCC2429 lung xenografts; 3 mg/kg Q4dx4, DAY 3): 606 ± 78 mm^3
- tumor volume (mm^3 +/− SEM) (HCC2429 lung xenografts; 3 mg/kg Q4dx4, DAY 6): 723 ± 101 mm^3
- tumor volume (mm^3 +/− SEM) (HCC2429 lung xenografts; 3 mg/kg Q4dx4, DAY 8): 696 ± 100 mm^3
- tumor volume (mm^3 +/− SEM) (HCC2429 lung xenografts; 3 mg/kg Q4dx4, DAY 10): 620 ± 90 mm^3
- tumor volume (mm^3 +/− SEM) (HCC2429 lung xenografts; 3 mg/kg Q4dx4, DAY 13): 543 ± 92 mm^3
- tumor volume (mm^3 +/− SEM) (HCC2429 lung xenografts; 3 mg/kg Q4dx4, DAY 15): 512 ± 111 mm^3
- tumor volume (mm^3 +/− SEM) (HCC2429 lung xenografts; 3 mg/kg Q4dx4, DAY 17): 442 ± 114 mm^3
- tumor volume (mm^3 +/− SEM) (HCC2429 lung xenografts; 3 mg/kg Q4dx4, DAY 20): 428 ± 144 mm^3
- tumor volume (mm^3 +/− SEM) (HCC2429 lung xenografts; 3 mg/kg Q4dx4, DAY 23): 405 ± 149 mm^3
- tumor volume (mm^3 +/− SEM) (HCC2429 lung xenografts; 3 mg/kg Q4dx4, DAY 27): 422 ± 164 mm^3
- tumor volume (mm^3 +/− SEM) (HCC2429 lung xenografts; 3 mg/kg Q4dx4, DAY 30): 394 ± 182 mm^3
- tumor volume (mm^3 +/− SEM) (HCC2429 lung xenografts; 3 mg/kg Q4dx4, DAY 34): 505 ± 236 mm^3
- tumor volume (mm^3 +/− SEM) (HCC2429 lung xenografts; 3 mg/kg Q4dx4, DAY 37): 606 ± 283 mm^3
- tumor volume (mm^3 +/− SEM) (HCC2429 lung xenografts; 3 mg/kg Q4dx4, DAY 41): 750 ± 361 mm^3
- tumor volume (mm^3 +/− SEM) (HCC2429 lung xenografts; 3 mg/kg Q4dx4, DAY 45): 872 ± 415 mm^3
- tumor volume (mm^3 +/− SEM) (HCC2429 lung xenografts; 3 mg/kg Q4dx4, DAY 49): 558 ± 303 mm^3
- tumor volume (mm^3 +/− SEM) (HCC2429 lung xenografts; 3 mg/kg Q4dx4, DAY 52): 571 ± 310 mm^3
- tumor volume (mm^3 +/− SEM) (HCC2429 lung xenografts; 3 mg/kg Q4dx4, DAY 56): 704 ± 399 mm^3
- tumor volume (mm^3 +/− SEM) (HCC2429 lung xenografts; 3 mg/kg Q4dx4, DAY −1): 245 ± 23 mm^3
- effect on growth of HCC2429 lung xenografts (in words) (HCC2429 lung xenografts; humanized ADCs, Q4dx4, doses of Tables 12 and 13): inhibited growth of HCC2429 lung xenografts in a dose-dependent manner; also recorded: a 3 mg/kg dose of hu28-vc0101 was more potent than a 10 mg/kg dose of hu28-vc6780
- IC50 (ng Ab/mL) (OVCAR3 (ovarian cancer)): 306 ng Ab/mL
- IC50 (ng Ab/mL) (HCC2429 (lung cancer); [2]): 473 ng Ab/mL
- IC50 (ng Ab/mL) (HCC2429 (lung cancer); [3]): 2940 ng Ab/mL
- IC50 (ng Ab/mL) (MDA-MB-468/hNotch; [2]): 3.2 ng Ab/mL
- IC50 (ng Ab/mL) (MDA-MB-468/hNotch; [3]): 3 ng Ab/mL
